Reference: PubChem BioAssay AID1508624 (National Center for Advancing Translational Sciences (NCATS), 2021)
Out of some 48,000 compounds screened, about 120 (0.25%) were called active. Inconclusive results (about 4%) are left out. Calls come from the whole dose curve; as a rule, active = well fitted activation curve with a large enough effect; inconclusive = small, poorly fitted or top-dose-only effect, or another doubt; inactive = no such curve, though single readings can be large or run the other way. This is one part of the list.

Assay: Primary qHTS for Identification of Small Molecule Activators of Huntingtin-Antisense Promoter Activity; note: nearly all actives have a fitted effect of over 55% in size
Conditions: HEK293 HTT-AS promoter firefly luciferase reporter (activity 0% = vehicle and -100% = no light), 24 h; series mostly up to 57.5 µM; activity change, positive = activation: at the top concentration
How it was run: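 HEK293 cells carrying firefly luciferase reporters were seeded at 2,500 per well in Opti-MEM and cultured for 24 h. They were then treated with compounds at up to 57.5 uM final for 24 h at 37 degrees C before Dual-Glo luminescence readout.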

SMILES | activity change, positive = activation
CCOC(=O)c1noc2ncn(Cc3cccc(C#N)c3)c(=O)c12 | inactive: 5.4%
O=C(CCCn1c(=O)[nH]c2ccsc2c1=O)N1CCN(c2cccc(C(F)(F)F)c2)CC1 | inactive: -24.8%
Cc1cc(Cl)ccc1NC(=O)CN1C(=O)COc2ccc(S(=O)(=O)N3CCC(C)CC3)cc21 | inactive: -16.8%
COc1ccccc1CN(Cc1ccco1)c1cnc(S(C)(=O)=O)nc1C(=O)Nc1ccccc1Cl | inactive: -23.4%
CCOc1ccc(CCNC(=O)CCCc2nnc3n(C)c(=O)c4sccc4n23)cc1OCC | inactive: 6.13%
Cc1c(C(=O)OC2CCC(C)CC2)[nH]c2c1C(=O)CC(c1ccccc1Cl)C2 (configuration not stated) | inactive: -17%
COc1ccc(OCC(=O)Nc2nc(-c3ccc(Br)cc3)ns2)cc1 | inactive: 6.81%
COc1ccc(NC(=O)NCc2c(-n3cccc3)sc3c2CCCC3)c(OC)c1 | inactive: 5.24%
CCNc1nc(NC(C)CC)nc(Oc2ccc(OCC)nn2)n1 (configuration not stated) | inactive: 1.92%
CCc1cccc(C)c1NC(=O)NC1COc2ccccc2C1 (configuration not stated) | inactive: -13.9%
COc1ccc(NC(=O)CSc2nc(-c3ccc(OC)c(OC)c3)[nH]c2-c2ccc(C)cc2)cc1 | inactive: -17.8%
CCOC(=O)Cc1ccc(NC(=O)N(C(C)C)C2CCN(C(C)=O)CC2)cc1 | inactive: -0.526%
COc1ccc(NCc2cc3cc4c(cc3n(CC(=O)Nc3ccccc3)c2=O)OCO4)cc1 | inactive: -9.52%
CCOc1ccc(CNC(=O)Cn2cc3c(n2)-c2c(oc(C(=O)N4CCCC4)c2C)CC3)cc1 | inactive: -37.3%
CCCC1=Nc2cc(C(=O)NCC(C)c3ccccc3)ccc2Sc2ccccc21 (configuration not stated) | inactive: -33.9%
COc1cccc(CNC(=O)Cn2nc3c(cc2=O)CCCC3)c1OC | inactive: -5.39%
Cc1ccc(C2c3c(-c4ccccc4O)n[nH]c3C(=O)N2CCc2ccccc2)cc1 (configuration not stated) | inactive: -34.9%
CC1CCCN(C(=O)CCS(=O)(=O)c2cc3c(cc2Cl)NC(=O)CO3)C1 (configuration not stated) | inactive: -8.56%
CC(C)c1ccc(NC(=O)CN2C(=O)CCc3cc(S(=O)(=O)N4CCOCC4)ccc32)cc1 | inactive: -13%
COc1ccc(C(=O)N2CCN(C(=O)COc3ccc(C)cc3)CC2)cc1OC | inactive: 2.69%
O=C(Cn1cc(S(=O)(=O)N2CCN(c3ccccc3F)CC2)c2ccccc2c1=O)Nc1ccc(F)cc1Cl | inactive: -16.1%
COc1cc2c(C(=O)N3CCN(c4cc(Cl)ccc4C)CC3)cn(CC(C)C)c(=O)c2cc1OC | inactive: -32.2%
COc1ccc(S(=O)(=O)NCCc2sc(-c3cccc(F)c3)nc2C)cc1 | inactive: -21.9%
O=C(Nc1ccccc1F)C(Cc1ccccc1)N1Cc2ccccc2C1=O (configuration not stated) | inactive: 1.65%

SMILES | activity change, positive = activation
CC(C)c1ccc(NC(=O)c2ccc(F)c(S(=O)(=O)N3CCN(c4ccccc4F)CC3)c2)cc1 | inactive: -12.5%
CCCOc1ccc(-c2cccc(NS(=O)(=O)c3ccc(CC)cc3)c2)nn1 | inactive: -28.5%
COc1ccc(NC(=O)CN2CCN(c3ccccc3F)CC2)c(OC)c1 | inactive: -10%
CCC1=C(c2ccc(C)cc2)S(=O)(=O)N=C1N1CCC(C(=O)NCc2ccc(C)cc2)CC1 | inactive: -37.9%
c1cnc(N2CCN(Cc3ccc4c(c3)OCO4)CC2)nc1 | inactive: -2.71%
Cc1ccc(NC(=O)CSc2nccn2Cc2ccc3c(c2)OCO3)c(C)c1 | inactive: 8.37%
Cc1ccc(C(=O)/C=C/c2cn(CC(O)CN3CCCCCC3)c3ccccc23)cc1 (configuration not stated) | inactive: -21.4%
Cc1cc(C)c(NC(=O)CN(C)S(=O)(=O)c2ccc3c(c2)c(=O)n(C)c(=O)n3C)c(C)c1 | inactive: -11.9%
CCCSCCCNC(=O)CN1C(=O)CCn2nc(-c3cn(C)c4ccccc34)cc21 | inactive: -1.92%
CCC(C)NC(=O)CCC(=O)NNc1nc2ccccc2c2nc(C)nn12 (configuration not stated) | inactive: -3.9%
Cc1ccc(-c2nn3c(=O)cc(CN4CCN(C(=O)c5ccc(C(C)(C)C)cc5)CC4)nc3s2)cc1 | inactive: -10.9%
CCc1ccc(S(=O)(=O)n2ccnc2)cc1 | inactive: -6.66%
O=C(Nc1ccc(F)cc1F)N1CCc2c(sc3c2CCCC3)C1c1ccc(F)cc1 (configuration not stated) | inactive: -4.75%
COc1cc(NS(=O)(=O)c2ccc(NC(=O)c3ccc(OC)c(Br)c3)cc2)nc(OC)n1 | inactive: -11.9%
Cn1c(=O)c2c(n3c4ccccc4nc13)NC(=O)CC2c1cccc(Cl)c1 (configuration not stated) | inactive: -10.1%
COc1ccc(Cl)cc1NC(=O)Cn1nnc(C(=O)NCc2ccc3c(c2)OCO3)c1N | inactive: -38.6%
COC(=O)c1sccc1S(=O)(=O)N1CCN(c2ccc(C(C)=O)cc2)CC1 | inactive: -17.7%
C[C@](N)(Cc1ccc(O)c(O)c1)C(=O)O | inactive
Cc1ccc(Cn2c(CN3CCC(C(=O)NCC(C)c4ccccc4)CC3)cc3ccccc32)cc1 (configuration not stated) | inactive: -29.7%
Cc1ccc(C)c(N2CCN(C(=O)C3CCCN(S(=O)(=O)c4cccc5nonc45)C3)CC2)c1 (configuration not stated) | inactive: -37.2%
CCOCCc1nn2c(=O)cc(COC(=O)c3cccc(C)c3)nc2s1 | inactive: -5.73%
Cc1ccc(-c2cc(C(=O)Nc3c(C(=O)c4ccc(C)c(F)c4)oc4ccccc34)no2)cc1 | inactive: -1.12%
CCOC(=O)c1c(NC(=O)CSc2cn(CCNC(=O)c3c(F)cccc3F)c3ccccc23)sc2c1CCCC2 | inactive: -20.9%
